# Reference: the supplement of paper PMC11876631
# ± gives the standard deviation of the averaged measurements. Laboratory Escherichia coli strains with one amino-acid change in an essential protein, pooled on minimal glucose agar with carbenicillin or gentamicin at twice the control MIC (plus kanamycin and chloramphenicol for the plasmids), 48 h. Fold change of barcode share against drug-free plates; higher = less susceptible. Active = above 20 in both replicates (the paper's putatively resistant). '<' = one read or none on drug, '>' = one read or none on a drug-free plate. Shares are relative, so most strains fall below 1 when a few take over. Listed are strains with at least 15 reads on both drug-free plates, and hits; most hits rest on fewer reference reads. Replicate rank correlation about 0.5. Edits are read from barcodes.
# B1: mukE I98W (protein)
# chain: MSSTNIEQVMPVKLAQALANPLFPALDSALRSGRHIGLDELDNHAFLMDFQEYLEEFYARYNVELIRAPEGFFYLRPRSTTLIPRSVLSELDMMVGKWLCYLYLSPERLANEGIFTQQELYDELLTLADEAKLLKLVNNRSTGSDVDRQKLQEKVRSSLNRLRRLGMVWFMGHDSSKFRITESVFRFGADVRAGDDPREAQRRLIRDGEAMPIENHLQLNDETEENQPDSGEEE
# B2: mukE I98Q (protein)
# chain: MSSTNIEQVMPVKLAQALANPLFPALDSALRSGRHIGLDELDNHAFLMDFQEYLEEFYARYNVELIRAPEGFFYLRPRSTTLIPRSVLSELDMMVGKQLCYLYLSPERLANEGIFTQQELYDELLTLADEAKLLKLVNNRSTGSDVDRQKLQEKVRSSLNRLRRLGMVWFMGHDSSKFRITESVFRFGADVRAGDDPREAQRRLIRDGEAMPIENHLQLNDETEENQPDSGEEE
# B3: mukE I98D (protein)
# chain: MSSTNIEQVMPVKLAQALANPLFPALDSALRSGRHIGLDELDNHAFLMDFQEYLEEFYARYNVELIRAPEGFFYLRPRSTTLIPRSVLSELDMMVGKDLCYLYLSPERLANEGIFTQQELYDELLTLADEAKLLKLVNNRSTGSDVDRQKLQEKVRSSLNRLRRLGMVWFMGHDSSKFRITESVFRFGADVRAGDDPREAQRRLIRDGEAMPIENHLQLNDETEENQPDSGEEE
# B4: mukE L109A (protein)
# chain: MSSTNIEQVMPVKLAQALANPLFPALDSALRSGRHIGLDELDNHAFLMDFQEYLEEFYARYNVELIRAPEGFFYLRPRSTTLIPRSVLSELDMMVGKILCYLYLSPERAANEGIFTQQELYDELLTLADEAKLLKLVNNRSTGSDVDRQKLQEKVRSSLNRLRRLGMVWFMGHDSSKFRITESVFRFGADVRAGDDPREAQRRLIRDGEAMPIENHLQLNDETEENQPDSGEEE
# B5: mukE L109W (protein)
# chain: MSSTNIEQVMPVKLAQALANPLFPALDSALRSGRHIGLDELDNHAFLMDFQEYLEEFYARYNVELIRAPEGFFYLRPRSTTLIPRSVLSELDMMVGKILCYLYLSPERWANEGIFTQQELYDELLTLADEAKLLKLVNNRSTGSDVDRQKLQEKVRSSLNRLRRLGMVWFMGHDSSKFRITESVFRFGADVRAGDDPREAQRRLIRDGEAMPIENHLQLNDETEENQPDSGEEE
# B6: mukE L109D (protein)
# chain: MSSTNIEQVMPVKLAQALANPLFPALDSALRSGRHIGLDELDNHAFLMDFQEYLEEFYARYNVELIRAPEGFFYLRPRSTTLIPRSVLSELDMMVGKILCYLYLSPERDANEGIFTQQELYDELLTLADEAKLLKLVNNRSTGSDVDRQKLQEKVRSSLNRLRRLGMVWFMGHDSSKFRITESVFRFGADVRAGDDPREAQRRLIRDGEAMPIENHLQLNDETEENQPDSGEEE
# B7: mukE V184A (protein)
# chain: MSSTNIEQVMPVKLAQALANPLFPALDSALRSGRHIGLDELDNHAFLMDFQEYLEEFYARYNVELIRAPEGFFYLRPRSTTLIPRSVLSELDMMVGKILCYLYLSPERLANEGIFTQQELYDELLTLADEAKLLKLVNNRSTGSDVDRQKLQEKVRSSLNRLRRLGMVWFMGHDSSKFRITESAFRFGADVRAGDDPREAQRRLIRDGEAMPIENHLQLNDETEENQPDSGEEE
# B8: mukE V184Q (protein)
# chain: MSSTNIEQVMPVKLAQALANPLFPALDSALRSGRHIGLDELDNHAFLMDFQEYLEEFYARYNVELIRAPEGFFYLRPRSTTLIPRSVLSELDMMVGKILCYLYLSPERLANEGIFTQQELYDELLTLADEAKLLKLVNNRSTGSDVDRQKLQEKVRSSLNRLRRLGMVWFMGHDSSKFRITESQFRFGADVRAGDDPREAQRRLIRDGEAMPIENHLQLNDETEENQPDSGEEE
# B9: mukE V184P (protein)
# chain: MSSTNIEQVMPVKLAQALANPLFPALDSALRSGRHIGLDELDNHAFLMDFQEYLEEFYARYNVELIRAPEGFFYLRPRSTTLIPRSVLSELDMMVGKILCYLYLSPERLANEGIFTQQELYDELLTLADEAKLLKLVNNRSTGSDVDRQKLQEKVRSSLNRLRRLGMVWFMGHDSSKFRITESPFRFGADVRAGDDPREAQRRLIRDGEAMPIENHLQLNDETEENQPDSGEEE
# B10: mukF L32A (protein)
# chain: MSEFSQTVPELVAWARKNDFSISLPVDRLSFALAVATLNGERLDGEMSEGELVDAFRHVSDAFEQTSETIGVRANNAINDMVRQRLLNRFTSEQAEGNAIYRLTPLGIGITDYYIRQREFSTLRLSMQLSIVAGELKRAADAAEEGGDEFHWHRNVYAPLKYSVAEIFDSIDLTQRLMDEQQQQVKDDIAQLLNKDWRAAISSCELLLSETSGTLRELQDTLEAAGDKLQANLLRIQDATMTHDDLHFVDRLVFDLQSKLDRIISWGQQSIDLWIGYDRHVHKFIRTAIDMDKNRVFAQRLRQSVQTYFDEPWALTYANADRLLDMRDEEMALRDEEVTGELPEDLEYEEFNEIREQLAAIIEEQLAVYKTRQVPLDLGLVVREYLSQYPRARHFDVARIVIDQAVRLGVAQADFTGLPAKWQPINDYGAKVQAHVIDKY
# B11: mukF L33A (protein)
# chain: MSEFSQTVPELVAWARKNDFSISLPVDRLSFLAAVATLNGERLDGEMSEGELVDAFRHVSDAFEQTSETIGVRANNAINDMVRQRLLNRFTSEQAEGNAIYRLTPLGIGITDYYIRQREFSTLRLSMQLSIVAGELKRAADAAEEGGDEFHWHRNVYAPLKYSVAEIFDSIDLTQRLMDEQQQQVKDDIAQLLNKDWRAAISSCELLLSETSGTLRELQDTLEAAGDKLQANLLRIQDATMTHDDLHFVDRLVFDLQSKLDRIISWGQQSIDLWIGYDRHVHKFIRTAIDMDKNRVFAQRLRQSVQTYFDEPWALTYANADRLLDMRDEEMALRDEEVTGELPEDLEYEEFNEIREQLAAIIEEQLAVYKTRQVPLDLGLVVREYLSQYPRARHFDVARIVIDQAVRLGVAQADFTGLPAKWQPINDYGAKVQAHVIDKY
# B12: mukF L33W (protein)
# chain: MSEFSQTVPELVAWARKNDFSISLPVDRLSFLWAVATLNGERLDGEMSEGELVDAFRHVSDAFEQTSETIGVRANNAINDMVRQRLLNRFTSEQAEGNAIYRLTPLGIGITDYYIRQREFSTLRLSMQLSIVAGELKRAADAAEEGGDEFHWHRNVYAPLKYSVAEIFDSIDLTQRLMDEQQQQVKDDIAQLLNKDWRAAISSCELLLSETSGTLRELQDTLEAAGDKLQANLLRIQDATMTHDDLHFVDRLVFDLQSKLDRIISWGQQSIDLWIGYDRHVHKFIRTAIDMDKNRVFAQRLRQSVQTYFDEPWALTYANADRLLDMRDEEMALRDEEVTGELPEDLEYEEFNEIREQLAAIIEEQLAVYKTRQVPLDLGLVVREYLSQYPRARHFDVARIVIDQAVRLGVAQADFTGLPAKWQPINDYGAKVQAHVIDKY
# B13: mukF L33Q (protein)
# chain: MSEFSQTVPELVAWARKNDFSISLPVDRLSFLQAVATLNGERLDGEMSEGELVDAFRHVSDAFEQTSETIGVRANNAINDMVRQRLLNRFTSEQAEGNAIYRLTPLGIGITDYYIRQREFSTLRLSMQLSIVAGELKRAADAAEEGGDEFHWHRNVYAPLKYSVAEIFDSIDLTQRLMDEQQQQVKDDIAQLLNKDWRAAISSCELLLSETSGTLRELQDTLEAAGDKLQANLLRIQDATMTHDDLHFVDRLVFDLQSKLDRIISWGQQSIDLWIGYDRHVHKFIRTAIDMDKNRVFAQRLRQSVQTYFDEPWALTYANADRLLDMRDEEMALRDEEVTGELPEDLEYEEFNEIREQLAAIIEEQLAVYKTRQVPLDLGLVVREYLSQYPRARHFDVARIVIDQAVRLGVAQADFTGLPAKWQPINDYGAKVQAHVIDKY
# B14: mukF V35A (protein)
# chain: MSEFSQTVPELVAWARKNDFSISLPVDRLSFLLAAATLNGERLDGEMSEGELVDAFRHVSDAFEQTSETIGVRANNAINDMVRQRLLNRFTSEQAEGNAIYRLTPLGIGITDYYIRQREFSTLRLSMQLSIVAGELKRAADAAEEGGDEFHWHRNVYAPLKYSVAEIFDSIDLTQRLMDEQQQQVKDDIAQLLNKDWRAAISSCELLLSETSGTLRELQDTLEAAGDKLQANLLRIQDATMTHDDLHFVDRLVFDLQSKLDRIISWGQQSIDLWIGYDRHVHKFIRTAIDMDKNRVFAQRLRQSVQTYFDEPWALTYANADRLLDMRDEEMALRDEEVTGELPEDLEYEEFNEIREQLAAIIEEQLAVYKTRQVPLDLGLVVREYLSQYPRARHFDVARIVIDQAVRLGVAQADFTGLPAKWQPINDYGAKVQAHVIDKY
# B15: asd I110A (protein)
# chain: MKNVGFIGWRGMVGSVLMQRMVEERDFDAIRPVFFSTSQLGQAAPSFGGTTGTLQDAFDLEALKALDIIVTCQGGDYTNEIYPKLRESGWQGYWIDAASSLRMKDDAIIALDPVNQDVITDGLNNGIRTFVGGNCTVSLMLMSLGGLFANDLVDWVSVATYQAASGGGARHMRELLTQMGHLYGHVADELATPSSAILDIERKVTTLTRSGELPVDNFGVPLAGSLIPWIDKQLDNGQSREEWKGQAETNKILNTSSVIPVDGLCVRVGALRCHSQAFTIKLKKDVSIPTVEELLAAHNPWAKVVPNDREITMRELTPAAVTGTLTTPVGRLRKLNMGPEFLSAFTVGDQLLWGAAEPLRRMLRQLA
# Target: Escherichia coli (laboratory strain)
# Test: barcode share on antibiotic plates over drug-free plates; higher = less susceptible
# Conditions: antibiotic: carbenicillin; 2× MIC (3.1 µg/mL)
# Protocol: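 A pool of E. coli strains, each edited to carry one amino-acid change in an essential protein, was grown for 48 h on minimal glucose agar with or without antibiotic; strain barcodes were sequenced; mean of two replicates.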
row,Protein,fold change of barcode share
1,B1,0.272 ± 0.14
2,B2,0.184 ± 0.051
3,B3,0.226 ± 0.046
4,B4,0.244 ± 0.0078
5,B5,0.257 ± 0.085
6,B6,0.378 ± 0.17
7,B7,0.183 ± 0.062
8,B8,0.167 ± 0.072
9,B9,0.255 ± 0.037
10,B10,0.221 ± 0.05
11,B11,0.207 ± 0.028
12,B12,0.208 ± 0.034
13,B13,0.421 ± 0.015
14,B14,0.264 ± 0.03
15,B15,0.34 ± 0.078

# Same assay, conditions: antibiotic: gentamicin; 2× MIC (MIC 0.45 µg/mL)
row,Protein,fold change of barcode share
1,B1,< 0.0117
2,B2,< 0.013
3,B4,< 0.00529
4,B5,< 0.00525
5,B6,< 0.00366
6,B7,0.0136 ± 0.012
7,B8,< 0.00594
8,B9,< 0.00591
9,B10,0.00517 ± 0.0035
10,B11,< 0.0046
11,B12,< 0.00205
12,B13,0.0118 ± 0.0085
13,B14,< 0.00191
14,B15,0.00569 ± 0.0064
